Reference: patent publication US11000038B2, “Pyridone compounds and agricultural and horticultural fungicides containing the same as active ingredients” (priority 2017, dated 2021)

Assays:
[1] = test system: cabbage Alternaria sooty spot fungi (Alternaia brassicicola); assay: Test Example C: cabbage Alternaria sooty spot, spray treatment of cabbage plants; type: in vivo; conditions: for Test C control value: cabbage Alternaria sooty spot; for Test C control value class (cabbage Alternaria sooty spot): control value=100{1-(n/3)}
Description: [Test Example C] Cabbage Alternaria Sooty Spot
Test plants (cabbage variety: Shikidori) were cultivated until the cotyledons extended after the sowing of seeds.
<Control Value> Control value=100{1−(n/3)}

[2] = test system: gray mold fungi (Botrytis cinerea); assay: Test Example B: tomato gray mold, spray treatment of tomato plants; conditions: for Test B control value: tomato gray mold; for Test B control value class (tomato gray mold): control value=100{1-(n/3)}
[3] = test system: grape downy mildew fungus (Plasmopara viticola); assay: Test Example G: grape downy mildew, spray treatment of grape plants; conditions: for Test G control value: grape downy mildew, 7 to 10 days after inoculation; for Test G control value class (grape downy mildew): 2.5 ml/pot, grape Neomuscat, 7 to 10 days from inoculation
[4] = test system: barley powdery mildew fungi (Blumeria graminis f. sp. hordei); assay: Test Example D: barley powdery mildew, spray treatment of barley plants; conditions: for Test D control value: barley powdery mildew; for Test D control value class (barley powdery mildew): control value=100{1-(n/3)}
[5] = test system: wheat brown rust fungi (Puccinia recondita); assay: Test Example E: wheat brown rust, spray treatment of wheat plants; type: in vivo; conditions: for Test E control value: wheat brown rust; for Test E control value class (wheat brown rust): control value=100{1-(n/3)}
[6] = spray treatment of cabbage plants
[7] = spray treatment of tomato plants
[8] = spray treatment of barley plants
[9] = spray treatment of wheat plants

Row | Compound | Test C control value ([1]; spray treatment) | Test B control value ([2]; spray treatment) | Test G control value ([3]; 250 ppm spray) | Test D control value ([4]; spray treatment) | Test E control value ([5]; spray treatment) | Test C control value class (cabbage Alternaria sooty spot) [1, 6] | Test B control value class (tomato gray mold) [2, 7] | Test G control value class (grape downy mildew) ([3]; 250 ppm spray) | Test D control value class (barley powdery mildew) [4, 8] | Test E control value class (wheat brown rust) [5, 9] | also measured
1 | Cc1ccccc1-n1cc(C)c(=O)c(C)c1-c1ccccc1 [Compound 253] |  |  |  |  |  |  |  |  |  |  | Test C control value [1, 6]: H (H shows the control value of more than 50%); Test B control value [2, 7]: H (H shows the control value of more than 50%); Test G control value ([3]; 250 ppm spray (2.5 ml/pot)): H (H shows the control value of more than 50%); Test D control value [4, 8]: L (L shows the control value of 50% or less); Test E control value [5, 9]: H (H shows the control value of more than 50%)
2 | O=c1c(Br)cn(-c2ccccc2)c(-c2c(F)cccc2Br)c1Cl [Compound 607] | H (H shows the control value of more than 50%) | H (H shows the control value of more than 50%) | L (L shows the control value of 50% or less) | L (L shows the control value of 50% or less) | H (H shows the control value of more than 50%) |  |  |  |  |  | 
3 | COc1cc(F)c(-c2c(C)c(=O)c(C)cn2-c2cccc(C)c2C)c(F)c1 [Compound 477] | H (H shows the control value of more than 50%) | H (H shows the control value of more than 50%) | H (H shows the control value of more than 50%) | H (H shows the control value of more than 50%) | H (H shows the control value of more than 50%) |  |  |  |  |  | 
4 | O=c1c(Br)cn(-c2ccccc2)c(-c2c(F)cccc2F)c1Br [Compound 363] |  |  |  |  |  |  |  |  |  |  | Test C control value [1, 6]: H (H shows the control value of more than 50%); Test B control value [2, 7]: H (H shows the control value of more than 50%); Test G control value ([3]; 250 ppm spray (2.5 ml/pot)): H (H shows the control value of more than 50%); Test D control value [4, 8]: L (L shows the control value of 50% or less); Test E control value [5, 9]: H (H shows the control value of more than 50%)
5 | COc1ccc(-c2c(C)c(=O)c(C)cn2-c2ccccc2)c(Br)c1 [Compound 594] | H (H shows the control value of more than 50%) | H (H shows the control value of more than 50%) | H (H shows the control value of more than 50%) | L (L shows the control value of 50% or less) | H (H shows the control value of more than 50%) |  |  |  |  |  | 
6 | Cc1cccc(-n2cc(Cl)c(=O)c(Br)c2-c2c(F)cc(F)cc2F)c1C [Compound 172] |  |  |  |  |  | H (H shows the control value of more than 50%) | H (H shows the control value of more than 50%) | L (L shows the control value of 50% or less) | H (H shows the control value of more than 50%) | H (H shows the control value of more than 50%) | 
7 | CCc1c(-c2ccccc2)n(-c2cc(F)ccc2C)cc(Br)c1=O [Compound 564] | H (H shows the control value of more than 50%) | H (H shows the control value of more than 50%) | L (L shows the control value of 50% or less) | L (L shows the control value of 50% or less) | H (H shows the control value of more than 50%) |  |  |  |  |  | 
8 | CCc1ccc(OC)cc1-n1cc(C)c(=O)c(CC)c1-c1c(F)cccc1F [Compound 628] | H (H shows the control value of more than 50%) | H (H shows the control value of more than 50%) | L (L shows the control value of 50% or less) | H (H shows the control value of more than 50%) | H (H shows the control value of more than 50%) |  |  |  |  |  | 
9 | Cc1ccc(C)c(-n2cc(Br)c(=O)c(Br)c2-c2c(F)cc(F)cc2F)c1 [Compound 144] |  |  |  |  |  | H (H shows the control value of more than 50%) | H (H shows the control value of more than 50%) | H (H shows the control value of more than 50%) | H (H shows the control value of more than 50%) | H (H shows the control value of more than 50%) | 
10 | Cc1cn(-c2ccccc2)c(-c2c(F)cccc2C(F)(F)F)c(C)c1=O [Compound 601] | H (H shows the control value of more than 50%) | H (H shows the control value of more than 50%) | L (L shows the control value of 50% or less) | H (H shows the control value of more than 50%) | H (H shows the control value of more than 50%) |  |  |  |  |  | 
11 | O=c1c(Cl)cn(-c2cccc(Br)c2)c(-c2c(F)cc(F)cc2F)c1Br [Compound 119] |  |  |  |  |  | H (H shows the control value of more than 50%) | L (L shows the control value of 50% or less) | L (L shows the control value of 50% or less) | L (L shows the control value of 50% or less) | L (L shows the control value of 50% or less) | 
12 | Cc1ccc(C)c(-n2cc(Br)c(=O)c(Cl)c2-c2ccccc2)c1 [Compound 459] | L (L shows the control value of 50% or less) | H (H shows the control value of more than 50%) | L (L shows the control value of 50% or less) | L (L shows the control value of 50% or less) | L (L shows the control value of 50% or less) |  |  |  |  |  | 
13 | O=c1c(Br)cn(-c2cccnc2Cl)c(-c2c(F)cc(F)cc2F)c1Cl [Compound 36] |  |  |  |  |  | H (H shows the control value of more than 50%) | H (H shows the control value of more than 50%) | H (H shows the control value of more than 50%) | H (H shows the control value of more than 50%) | H (H shows the control value of more than 50%) | 
14 | CCc1c(-c2c(F)cc(F)cc2F)n(-c2cccc(OC)c2C)cc(C)c1=O [Compound 514] | H (H shows the control value of more than 50%) | H (H shows the control value of more than 50%) | H (H shows the control value of more than 50%) | H (H shows the control value of more than 50%) | H (H shows the control value of more than 50%) |  |  |  |  |  | 
15 | CC(C)n1cc(Br)c(=O)c(Cl)c1-c1c(F)cc(F)cc1F [Compound 13] |  |  |  |  |  | H (H shows the control value of more than 50%) | L (L shows the control value of 50% or less) | H (H shows the control value of more than 50%) | H (H shows the control value of more than 50%) | H (H shows the control value of more than 50%) | 
16 | O=c1c(Cl)cn(-c2ccccc2Br)c(-c2c(F)cccc2F)c1Cl [Compound 92] |  |  |  |  |  | H (H shows the control value of more than 50%) | H (H shows the control value of more than 50%) | L (L shows the control value of 50% or less) | H (H shows the control value of more than 50%) | H (H shows the control value of more than 50%) | 
17 | COCCOc1ccc(C)c(-n2cc(C)c(=O)c(C)c2-c2c(F)cc(OC)cc2F)c1 [Compound 316] |  |  |  |  |  |  |  |  |  |  | Test C control value [1, 6]: H (H shows the control value of more than 50%); Test B control value [2, 7]: H (H shows the control value of more than 50%); Test G control value ([3]; 250 ppm spray (2.5 ml/pot)): L (L shows the control value of 50% or less); Test D control value [4, 8]: H (H shows the control value of more than 50%); Test E control value [5, 9]: H (H shows the control value of more than 50%)
18 | CCc1c(-c2c(F)cc(F)cc2F)n(-c2cc(C)ccc2C)cc(C)c1=O [Compound 520] | H (H shows the control value of more than 50%) | H (H shows the control value of more than 50%) | L (L shows the control value of 50% or less) | H (H shows the control value of more than 50%) | H (H shows the control value of more than 50%) |  |  |  |  |  | 
19 | O=c1c(Br)cn(-c2ccccc2)c(-c2c(F)cccc2F)c1Cl [Compound 362] |  |  |  |  |  |  |  |  |  |  | Test C control value [1, 6]: H (H shows the control value of more than 50%); Test B control value [2, 7]: H (H shows the control value of more than 50%); Test G control value ([3]; 250 ppm spray (2.5 ml/pot)): H (H shows the control value of more than 50%); Test D control value [4, 8]: L (L shows the control value of 50% or less); Test E control value [5, 9]: H (H shows the control value of more than 50%)
20 | Cc1cccc(Cl)c1-n1cc(Br)c(=O)c(Cl)c1-c1ccc(F)cc1 [Compound 379] | L (L shows the control value of 50% or less) | H (H shows the control value of more than 50%) | H (H shows the control value of more than 50%) | L (L shows the control value of 50% or less) | H (H shows the control value of more than 50%) |  |  |  |  |  | 
